The values below come from PubChem BioAssay AID1508624 (National Center for Advancing Translational Sciences (NCATS), 2021).

Out of some 48,000 compounds screened, about 120 (0.25%) were called active. Not shown: some 4% with an inconclusive outcome. Calls follow the shape of the dose curve; as a rule, active = well fitted activation curve with a large enough effect; inconclusive = small, poorly fitted or top-dose-only effect, or another doubt; inactive = no such curve, though single readings can be large or run the other way. The list shows a part of the results.

The nature of this assay: Primary qHTS for Identification of Small Molecule Activators of Huntingtin-Antisense Promoter Activity. Also: nearly all actives have a fitted effect of over 55% in size. The conditions noted are these: HEK293 HTT-AS promoter firefly luciferase reporter (activity 0% = vehicle and -100% = no light), 24 h; series mostly up to 57.5 µM; activity change, positive = activation: at the top concentration. A digest of the protocol: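 HEK293 cells carrying firefly luciferase reporters were seeded at 2,500 per well in Opti-MEM and cultured for 24 h. They were then treated with compounds at up to 57.5 uM final for 24 h at 37 degrees C before Dual-Glo luminescence readout.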
Take `Cc1c(C(=O)NCc2ccccc2)oc2ccc(S(=O)(=O)N3CCC(C)CC3)cc12`: the “activity change, positive = activation” value was inactive: -17.8%. As for `COc1ccc(C)cc1NC(=O)c1ccc2nc(Cc3ccccc3)oc2c1`, the “activity change, positive = activation” value was inactive: -18.7%. For the molecule `CCn1c2c(c(=O)n3ncc(C(=O)Nc4ccc(C(=O)OC)cc4)c13)CN(Cc1ccc(OC)cc1)CC2`, the “activity change, positive = activation” value is inactive: 8.71%. In the case of `COc1ccc(CCNC(=O)c2c(O)nc3c(C)cccn3c2=O)cc1OC` it was inactive: 18.8%; in that of `COc1ccc(NC(=O)c2c(N)c(C(=O)c3ccc(OC)cc3)n3ccccc23)cc1`, inactive: -7.98%. In the case of `COc1ccc(N2CCN(C(=O)CSc3nc4ccccc4nc3Cc3ccc(Cl)cc3)CC2)cc1` it was inactive: -30.1%. For `Cc1c(C(=O)NCCc2ccc(Cl)cc2)cccc1-n1cnc2cccnc21` the value was inactive: -13.1%. Regarding `CCn1c2ccccc2c2cc(CN3CCN(Cc4ccc(OC)c(OC)c4)CC3)ccc21`, the “activity change, positive = activation” value is inactive: -31.7%.

For `CCOc1ccc(CC(=O)NCCS(=O)(=O)N2CCN(c3ccc(OC)cc3)CC2)cc1`, the “activity change, positive = activation” value is inactive: 4.33%.

With `Cc1cc(C)cc(NC(=O)c2sc3nc[nH]c(=O)c3c2C)c1`, the “activity change, positive = activation” value is inactive: 9.43%. Take `CCOC(=O)Cn1c(=O)n(CC2CCCO2)c2nc(-c3ccccc3Cl)nc(C(N)=O)c21` (stereo not drawn): the “activity change, positive = activation” value is inactive: -6.02%. For the molecule `CCOC(=O)c1ccc(CN(Cc2ccc(OC)cc2)S(=O)(=O)c2cccc(C(F)(F)F)c2)cc1`, the “activity change, positive = activation” value was inactive: -15.2%.

In the case of `O=c1c(N2CCc3ccccc3C2)csc2ccc(F)cc12`, the “activity change, positive = activation” value was inactive: 21.5%.

With `CCOc1ccc(N(CC)C(=O)c2noc3c2COc2ccc(C)cc2-3)cc1`, the “activity change, positive = activation” value was inactive: -26.3%.

Consider `COc1ccccc1C(=O)Nc1c(C(=O)c2ccccc2)oc2ccccc12`, for which the “activity change, positive = activation” value was inactive: -7.28%. As to `CC1=C(C(=O)Nc2ccccc2C)C(c2cccs2)n2nc(SCc3cc(C)ccc3C)nc2N1` (stereo not drawn), the “activity change, positive = activation” value is inactive: 21.8%. Take `Cc1ccc(CNC(=O)c2c(-c3ccc(Br)cc3)noc2C)o1`: the “activity change, positive = activation” value is inactive: -28.2%. In the case of `CCOc1ccccc1NC(=O)C1=C(C)Nc2ncnn2C1c1sccc1C` (stereo not drawn) it was inactive: -21.6%. Consider `O=C(CCCn1c(=O)c2cccn2c2cccnc21)Nc1ccccc1C(F)(F)F`, for which the “activity change, positive = activation” value is inactive: -7.02%. Consider `CCOC(=O)c1ccc(Nc2nn3c(=O)c4ccccc4nc3s2)cc1`, for which the “activity change, positive = activation” value is inactive: -2.72%. Consider `COc1cc(OC)c(NC(=O)N2CCC(CN3CCCC3)CC2)cc1Cl`, for which the “activity change, positive = activation” value was inactive: -10.4%. In the case of `COc1ccc(OC)c(NC(=O)c2ccc3c(Cl)c4c(nc3c2)CCCC4)c1` it was inactive: -8.28%; in that of `CCCCN(C)C(=O)Cn1cnc2sc(C)c(S(=O)(=O)N3CCC(C)CC3)c2c1=O`, inactive: 5.43%.

Take `Cc1ccc(CNc2ccc3cc(S(=O)(=O)N4CCCCC4)ccc3n2)cc1`: the “activity change, positive = activation” value is inactive: -39.1%. `COc1ccccc1Nc1ncnc2scc(-c3ccc(F)cc3)c12`: the “activity change, positive = activation” value was inactive: -31.2%. In the case of `Cc1ccc(CNC(=O)c2ccc(CS(=O)(=O)Cc3ccc(C)cc3)o2)cc1` it was inactive: -31.4%; in that of `Cc1nn(-c2ccccc2)c2c1N(CC(=O)N1CCN(c3ccccc3F)CC1)C(=O)CS2`, inactive: -27%. `CCN(CC)c1ccc(C2Nc3ccccc3-c3cc(C)nn32)cc1` (stereo not drawn): the “activity change, positive = activation” value is inactive: -7.21%. In the case of `CCCCN(CCCNC(=O)c1cc(Nc2ccccc2OC)nc2ccccc12)c1ccccc1` it was inactive: -28.7%; in that of `COc1ccc(CNC(=O)c2cccn2-c2nnc(N3CCCC3)s2)c(OC)c1`, inactive: -7.25%. In the case of `COc1ccc(C2(CNC(=O)C(=O)Nc3ccccc3C)CCCC2)cc1OC`, the “activity change, positive = activation” value was inactive: -16.7%. In the case of `Cc1ccc(N(Cc2cccs2)C(=O)c2ccco2)cc1` it was inactive: -29.7%; in that of `Nc1nn(-c2ccccc2)nc1C(=O)OCc1c(F)cccc1Cl`, inactive: 28.3%. As for `COc1cc(Nc2nc(SCC(=O)c3ccc(Cl)c(Cl)c3)nc3ccccc23)cc(OC)c1`, the “activity change, positive = activation” value was inactive: -35.7%. In the case of `O=C(Nc1ccc2nc3n(c(=O)c2c1)CCCCC3)c1cccc(C(F)(F)F)c1` it was inactive: -56.8%.

With `O=C(CCC1N=C2c3ccccc3N=C(SCC(=O)Nc3ccc(F)cc3)N2C1=O)NCc1ccco1` (stereo not drawn), the “activity change, positive = activation” value is inactive: -5.77%. For `CC(C)N(C(=O)Cn1cc(S(=O)(=O)Cc2ccc(Cl)cc2)c2ccccc21)C(C)C` the value was inactive: -17.5%; for `COc1ccc(-n2c(SCC(=O)NCc3ccccc3)nc3c([nH]c4ccccc43)c2=O)cc1`, inactive: -31.6%; for `COc1ccc(Nc2nn(-c3ccc(OC(F)(F)F)cc3)nc2C(C)=O)cc1`, inactive: 5.89%. As for `Cc1cc(C(=O)NCc2ccccc2)c2c(C)nn(-c3cccc(F)c3)c2n1`, the “activity change, positive = activation” value is inactive: -28.8%. For `COc1ccc(NC(=O)CC2Nc3ccccc3NC2=O)cc1` (stereo not drawn), the “activity change, positive = activation” value is inactive: 11.7%. For the molecule `O=C(Cn1c(=O)c2cccn2c2ccccc21)NCc1ccccc1F`, the “activity change, positive = activation” value is inactive: -2.76%. For `COC(=O)c1ccc(NC(=O)Cn2cnc3c2c(=O)n(C)c(=O)n3C)cc1` the value was inactive: -11.9%; for `Cc1cccc(N(CC(=O)NCCSCc2ccccc2)S(=O)(=O)c2ccccc2)c1C`, inactive: -31.5%.

As for `CCc1cccc(C)c1NC(=O)C1CCCN1S(=O)(=O)c1cccc2nsnc12` (stereo not drawn), the “activity change, positive = activation” value is inactive: -7.83%. In the case of `Cc1nc(N2CCCC2)c2c(C(=O)N3CCN(c4cc(Cl)ccc4C)CC3)c(C)oc2n1` it was inactive: -44.7%. Turning to `Cc1ccc(C(=O)c2cn(Cc3ccccc3)c3nc(C)ccc3c2=O)cc1`, the “activity change, positive = activation” value is inactive: -10.1%. Take `CCn1c(=O)c(=O)n(CC)c2cc(S(=O)(=O)Nc3ccc(C)cc3)ccc21`: the “activity change, positive = activation” value was inactive: -6.21%.
